Experimental data from the antibiotic and cytotoxicity screens of Wong et al. (2023).
The other results are listed elsewhere or left out.

Tests used:
[1] = tested on: HSkMC (human skeletal muscle cells); assay: cytotoxicity call (relative viability < 0.9); conditions: 10 µM
[2] = tested on: HepG2; assay: cytotoxicity call (relative viability < 0.9); conditions: 10 µM
[3] = tested on: S. aureus RN4220; assay: growth inhibition call (relative growth <= 0.2); conditions: 50 µM

In the case of Cc1ccc(C2OC(CO)C(O)C(O)C2O)cc1Cc1ccc(-c2ccc(F)cc2)s1 (centres undefined), the cytotoxicity call [1] was “inactive”, the cytotoxicity call [2] was “inactive” and the growth inhibition call [3] was “inactive”.

CO[C@H]1CN(C)C(=O)c2ccc(NC(=O)CC(F)(F)F)cc2OC[C@H](C)N(C(=O)C2CCOCC2)C[C@@H]1C was tested, and the cytotoxicity call [1] was “inactive”, the cytotoxicity call [2] was “inactive” and the growth inhibition call [3] was “inactive”.

CN(C)CN1C(=O)c2ccccc2C1=O was tested, and the cytotoxicity call [1] was “inactive”, the cytotoxicity call [2] was “inactive” and the growth inhibition call [3] was “inactive”.

In the case of C[C@@H]1CN([C@@H](C)CO)C(=O)c2cc(NS(=O)(=O)c3ccc(Cl)cc3)ccc2O[C@@H](C)CCCCO[C@H]1CN(C)S(=O)(=O)c1cccs1, the cytotoxicity call [1] was “inactive”, the cytotoxicity call [2] was “inactive” and the growth inhibition call [3] was “inactive”.

In the case of C[C@@H]1CN([C@@H](C)CO)C(=O)c2cc(NC(=O)Nc3ccc(F)cc3)ccc2O[C@@H]1CN(C)Cc1ccc(-c2ccccc2)cc1, the cytotoxicity call [1] was “active”, the cytotoxicity call [2] was “active” and the growth inhibition call [3] was “inactive”.

CCOC(=O)N1CCN([C@H](c2ccc(OC)cc2)c2cc(CC)sc2NC(=O)c2ccccc2)CC1 was tested, and the cytotoxicity call [1] was “inactive”, the cytotoxicity call [2] was “inactive” and the growth inhibition call [3] was “inactive”.

With COc1ccc(NC(=O)N(C)C[C@H]2Oc3ccc(NS(=O)(=O)c4c(C)noc4C)cc3C(=O)N([C@@H](C)CO)C[C@@H]2C)cc1 the cytotoxicity call [1] was “inactive”, the cytotoxicity call [2] was “inactive” and the growth inhibition call [3] was “inactive”.

In the case of COc1ccc(NC(=O)Nc2ccc3c(c2)C(=O)N([C@H](C)CO)C[C@H](C)[C@H](CN(C)C(=O)NC(C)C)OCCCC[C@H](C)O3)cc1, the cytotoxicity call [1] was “inactive”, the cytotoxicity call [2] was “inactive” and the growth inhibition call [3] was “inactive”.

Cc1ccccc1S(=O)(=O)N1C[C@@H](O)COC[C@@H]2O[C@H](CC(=O)NCc3ccccc3Cl)CC[C@H]21 was tested, and the cytotoxicity call [1] was “inactive”, the cytotoxicity call [2] was “inactive” and the growth inhibition call [3] was “inactive”.

In the case of O=C(Nc1cccc([N+](=O)[O-])c1)C(=O)NC1CC1, the cytotoxicity call [1] was “inactive”, the cytotoxicity call [2] was “inactive” and the growth inhibition call [3] was “inactive”.

In the case of C[C@@H]1CN([C@H](C)CO)C(=O)c2cc(NC(=O)Nc3ccc4c(c3)OCO4)ccc2O[C@H]1CN(C)Cc1ccc(-c2ccccc2)cc1, the cytotoxicity call [1] was “inactive”, the cytotoxicity call [2] was “active” and the growth inhibition call [3] was “inactive”.

CC(C)(C)N1CC=C[C@@]23O[C@@H]4/C=C\CCCOC(=O)[C@@H]4[C@H]2C(=O)N(CCO)[C@@H]3C1=O was tested, and the cytotoxicity call [1] was “inactive”, the cytotoxicity call [2] was “inactive” and the growth inhibition call [3] was “inactive”.

COc1ccc(S(=O)(=O)Nc2cccc3c2O[C@@H](CN(C)C(=O)Nc2c(C)noc2C)[C@@H](C)CN([C@@H](C)CO)C3=O)cc1 was tested, and the cytotoxicity call [1] was “inactive”, the cytotoxicity call [2] was “inactive” and the growth inhibition call [3] was “inactive”.

O=C(CN1CCOCC1)N[C@H]1CC[C@@H](CCNC(=O)C2CCC2)O[C@@H]1CO was tested, and the cytotoxicity call [1] was “inactive”, the cytotoxicity call [2] was “inactive” and the growth inhibition call [3] was “inactive”.

With CCN1CCN(c2cc3c(cc2F)c(=O)c(C(=O)O)cn3C2CC2)CC1 the cytotoxicity call [1] was “inactive”, the cytotoxicity call [2] was “inactive” and the growth inhibition call [3] was “active”.

With Nc1ccn[nH]1 the cytotoxicity call [1] was “inactive”, the cytotoxicity call [2] was “inactive” and the growth inhibition call [3] was “inactive”.

With CC(C)(C)[S@@](=O)N1Cc2cc(C(=O)NCCc3ccncc3)nc(-c3cccc(-c4cccc(C#N)c4)c3)c2[C@H]1CCO the cytotoxicity call [1] was “inactive”, the cytotoxicity call [2] was “inactive” and the growth inhibition call [3] was “inactive”.

For CCCN(C)C[C@@H]1OCCCC[C@@H](C)Oc2ccc(NC(=O)Nc3ccc4c(c3)OCO4)cc2C(=O)N([C@H](C)CO)C[C@H]1C, the cytotoxicity call [1] was “inactive”, the cytotoxicity call [2] was “inactive” and the growth inhibition call [3] was “inactive”.

With CCCC1CCC(c2ccc(OC(=O)c3ccco3)cc2)CC1 (centres undefined) the cytotoxicity call [1] was “inactive”, the cytotoxicity call [2] was “inactive” and the growth inhibition call [3] was “inactive”.

CC(C)(CO)c1cc2cc(NC(=O)C3(c4ccc5c(c4)OC(F)(F)O5)CC3)c(F)cc2n1C[C@@H](O)CO was tested, and the cytotoxicity call [1] was “inactive”, the cytotoxicity call [2] was “inactive” and the growth inhibition call [3] was “inactive”.

With Cc1cn(C[C@H](N)C(=O)O)c(=O)n(Cc2ccsc2C(=O)O)c1=O the cytotoxicity call [1] was “inactive”, the cytotoxicity call [2] was “inactive” and the growth inhibition call [3] was “inactive”.

With C[C@@H]1CN([C@@H](C)CO)C(=O)c2cc(NS(=O)(=O)c3ccc(Cl)cc3)ccc2O[C@@H](C)CCCCO[C@H]1CN(C)Cc1ccc(C(F)(F)F)cc1 the cytotoxicity call [1] was “active”, the cytotoxicity call [2] was “active” and the growth inhibition call [3] was “inactive”.

For C[C@@H]1CCCCO[C@@H](CN(C)S(C)(=O)=O)[C@H](C)CN([C@H](C)CO)C(=O)c2cc(N(C)C)ccc2O1, the cytotoxicity call [1] was “inactive”, the cytotoxicity call [2] was “inactive” and the growth inhibition call [3] was “inactive”.

For O=C(CN1CCOCC1)N[C@@H]1CC[C@@H](CCn2cc(C3CCCC3)nn2)O[C@H]1CO, the cytotoxicity call [1] was “inactive”, the cytotoxicity call [2] was “inactive” and the growth inhibition call [3] was “inactive”.

C[C@@H]1CCCCO[C@H](CN(C)Cc2ccc3c(c2)OCO3)[C@@H](C)CN([C@@H](C)CO)C(=O)c2cc(NC(=O)c3ccccc3)ccc2O1 was tested, and the cytotoxicity call [1] was “inactive”, the cytotoxicity call [2] was “inactive” and the growth inhibition call [3] was “inactive”.

For C[C@H](CO)N1C[C@H](C)[C@H](CN(C)S(C)(=O)=O)OCc2cn(nn2)CCCC1=O, the cytotoxicity call [1] was “inactive”, the cytotoxicity call [2] was “inactive” and the growth inhibition call [3] was “inactive”.

With Cn1cnc(S(=O)(=O)N[C@@H]2CC[C@@H](CC(=O)NCC3CC3)O[C@@H]2CO)c1 the cytotoxicity call [1] was “inactive”, the cytotoxicity call [2] was “inactive” and the growth inhibition call [3] was “inactive”.

In the case of CNC[C@@H]1OCCCC[C@H](C)Oc2ccc(NC(=O)c3ccncc3)cc2C(=O)N([C@@H](C)CO)C[C@H]1C, the cytotoxicity call [1] was “inactive”, the cytotoxicity call [2] was “inactive” and the growth inhibition call [3] was “inactive”.
